# Laboratory results: the supplement of paper PMC8728848
# The list shows a part of the results.
# Columns and labels:
# Assay in all cases: glycan array binding signal (z-score within array); higher = stronger binding
# Conditions in all cases: glycan notation: IUPAC condensed, linker removed
# [1] = target: Gal(b1-3)GlcNAc(b1-2)Man(a1-3)[Gal(b1-3)GlcNAc(b1-2)Man(a1-6)]Man(b1-4)GlcNAc(b1-4)GlcNAc
# Procedure, shortened: (§1)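 Glycan array binding is given as a within-array Z-score, which can be read as non-binding when negative. The arrays, 3228 of them, came from the Consortium for Functional Glycomics database and were retained only where the protein sequence was available. Z-scores were averaged across arrays of the same protein sequence at different concentrations or buffers and across linkers.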
# [2] = target: Gal(b1-3)GlcNAc(b1-2)Man(a1-3)[Gal(b1-3)GlcNAc(b1-2)Man(a1-6)]Man(b1-4)GlcNAc(b1-4)[Fuc(a1-6)]GlcNAc
# Procedure, shortened: as §1
# [3] = target: Gal(b1-3)GlcNAc(b1-2)Man(a1-3)[GlcNAc(b1-4)][Gal(b1-3)GlcNAc(b1-2)Man(a1-6)]Man(b1-4)GlcNAc(b1-4)GlcNAc
# Procedure, shortened: as §1
# [4] = target: Gal(b1-3)GlcNAc(b1-2)[Gal(b1-3)GlcNAc(b1-6)]Man(a1-6)[Gal(b1-3)GlcNAc(b1-2)Man(a1-3)]Man(b1-4)GlcNAc(b1-4)GlcNAc
# Procedure, shortened: as §1
# [5] = target: Gal(b1-3)GlcNAc(b1-3)Gal(b1-3)GlcNAc
# Procedure, shortened: as §1
# [6] = target: Gal(b1-3)GlcNAc(b1-3)Gal(b1-4)Glc
# Procedure, shortened: as §1
# [7] = target: Gal(b1-3)GlcNAc(b1-3)Gal(b1-4)GlcNAc
# Procedure, shortened: as §1
# [8] = target: Gal(b1-3)GlcNAc(b1-3)Gal(b1-4)GlcNAc(b1-2)Man(a1-3)[Gal(b1-3)GlcNAc(b1-3)Gal(b1-4)GlcNAc(b1-2)Man(a1-6)]Man(b1-4)GlcNAc(b1-4)GlcNAc
# Procedure, shortened: as §1
# [9] = target: Gal(b1-3)GlcNAc(b1-3)Gal(b1-4)GlcNAc(b1-2)[Gal(b1-3)GlcNAc(b1-3)Gal(b1-4)GlcNAc(b1-6)]Man(a1-6)[Gal(b1-3)GlcNAc(b1-3)Gal(b1-4)GlcNAc(b1-2)Man(a1-3)]Man(b1-4)GlcNAc(b1-4)[Fuc(a1-6)]GlcNAc
# Procedure, shortened: as §1
# [10] = target: Gal(b1-3)GlcNAc(b1-3)Gal(b1-4)GlcNAc(b1-3)Gal(b1-4)GlcNAc(b1-2)[Gal(b1-3)GlcNAc(b1-3)Gal(b1-4)GlcNAc(b1-3)Gal(b1-4)GlcNAc(b1-6)]Man(a1-6)[Gal(b1-3)GlcNAc(b1-3)Gal(b1-4)GlcNAc(b1-3)Gal(b1-4)GlcNAc(b1-2)Man(a1-3)]Man(b1-4)GlcNAc(b1-4)[Fuc(a1-6)]GlcNAc
# Procedure, shortened: as §1
# [11] = target: Gal(b1-3)GlcNAc(b1-3)Gal(b1-4)GlcNAc(b1-6)[Gal(b1-3)GlcNAc(b1-3)]Gal(b1-4)Glc
# Procedure, shortened: as §1
# [12] = target: Gal(b1-3)GlcNAc(b1-3)Gal(b1-4)[Fuc(a1-3)]GlcNAc
# Procedure, shortened: as §1
# [13] = target: Gal(b1-3)GlcNAc(b1-3)Gal(b1-4)[Fuc(a1-3)]GlcNAc(b1-6)[Gal(b1-3)GlcNAc(b1-3)]Gal(b1-4)Glc
# Procedure, shortened: as §1
# [14] = target: Gal(b1-3)GlcNAc(b1-3)GalNAc
# Procedure, shortened: as §1
# [15] = target: Gal(b1-3)GlcNAc(b1-6)Gal(b1-4)GlcNAc
# Procedure, shortened: as §1
# [16] = target: Gal(b1-3)GlcNAc(b1-6)GalNAc
# Procedure, shortened: as §1
# [17] = target: Gal(b1-3)GlcNAc(b1-6)[Gal(b1-3)]GalNAc
# Procedure, shortened: as §1
# [18] = target: Gal(b1-3)GlcNAc6S
# Procedure, shortened: as §1
# [19] = target: Gal(b1-3)[Fuc(a1-4)]GlcNAc
# Procedure, shortened: as §1
# [20] = target: Gal(b1-3)[Fuc(a1-4)]GlcNAc(b1-2)Man
# Procedure, shortened: as §1
# [21] = target: Gal(b1-3)[Fuc(a1-4)]GlcNAc(b1-2)Man(a1-3)[Gal(b1-3)[Fuc(a1-4)]GlcNAc(b1-2)Man(a1-6)]Man(b1-4)GlcNAc(b1-4)[Fuc(a1-6)]GlcNAc
# Procedure, shortened: as §1
# [22] = target: Gal(b1-3)[Fuc(a1-4)]GlcNAc(b1-3)Gal(b1-3)[Fuc(a1-4)]GlcNAc
# Procedure, shortened: as §1
# [23] = target: Gal(b1-3)[Fuc(a1-4)]GlcNAc(b1-3)Gal(b1-4)[Fuc(a1-3)]GlcNAc
# Procedure, shortened: as §1
# [24] = target: Gal(b1-3)[Fuc(a1-4)]GlcNAc(b1-6)GalNAc
# Procedure, shortened: as §1
# [25] = target: Gal(b1-3)[GlcNAc(b1-6)]GalNAc
# Procedure, shortened: as §1
# [26] = target: Gal(b1-3)[Neu5Ac(a2-6)]GalNAc
# Procedure, shortened: as §1
# [27] = target: Gal(b1-3)[Neu5Ac(a2-6)]GlcNAc(b1-4)Gal(b1-4)Glc
# Procedure, shortened: as §1
# [28] = target: Gal(b1-3)[Neu5Ac(b2-6)]GalNAc
# Procedure, shortened: as §1
# [29] = target: Gal(b1-4)Gal
# Procedure, shortened: as §1
# [30] = target: Gal(b1-4)GalNAc(a1-3)[Fuc(a1-2)]Gal(b1-4)GlcNAc
# Procedure, shortened: as §1
# [31] = target: Gal(b1-4)GalNAc(b1-3)[Fuc(a1-2)]Gal(b1-4)GlcNAc
# Procedure, shortened: as §1
# [32] = target: Gal(b1-4)Glc
# Procedure, shortened: as §1
# [33] = target: Gal(b1-4)Glc6S
# Procedure, shortened: as §1
# [34] = target: Gal(b1-4)GlcNAc
# Procedure, shortened: as §1
# [35] = target: Gal(b1-4)GlcNAc(a1-6)Gal(b1-4)GlcNAc
# Procedure, shortened: as §1
# [36] = target: Gal(b1-4)GlcNAc(b1-2)Man
# Procedure, shortened: as §1
# [37] = target: Gal(b1-4)GlcNAc(b1-2)Man(a1-3)Man(b1-4)GlcNAc(b1-4)GlcNAc
# Procedure, shortened: as §1
# [38] = target: Gal(b1-4)GlcNAc(b1-2)Man(a1-3)[Gal(b1-4)GlcNAc(b1-2)Man(a1-6)]Man(b1-4)GlcNAc(b1-4)GlcNAc
# Procedure, shortened: as §1
# [39] = target: Gal(b1-4)GlcNAc(b1-2)Man(a1-3)[Gal(b1-4)GlcNAc(b1-2)Man(a1-6)]Man(b1-4)GlcNAc(b1-4)[Fuc(a1-6)]GlcNAc
# Procedure, shortened: as §1
# [40] = target: Gal(b1-4)GlcNAc(b1-2)Man(a1-3)[Gal(b1-4)GlcNAc(b1-2)Man(a1-6)][Gal(b1-4)GlcNAc(b1-4)]Man(b1-4)GlcNAc(b1-4)[Fuc(a1-6)]GlcNAc
# Procedure, shortened: as §1
# [41] = target: Gal(b1-4)GlcNAc(b1-2)Man(a1-3)[Gal(b1-4)GlcNAc(b1-2)Man(a1-6)][GlcNAc(b1-4)]Man(b1-4)GlcNAc(b1-4)[Fuc(a1-6)]GlcNAc
# Procedure, shortened: as §1
# [42] = target: Gal(b1-4)GlcNAc(b1-2)Man(a1-3)[GlcNAc(b1-2)Man(a1-6)]Man(b1-4)GlcNAc(b1-4)GlcNAc
# Procedure, shortened: as §1
# [43] = target: Gal(b1-4)GlcNAc(b1-2)Man(a1-3)[GlcNAc(b1-4)][Gal(b1-4)GlcNAc(b1-2)Man(a1-6)]Man(b1-4)GlcNAc(b1-4)GlcNAc
# Procedure, shortened: as §1
# [44] = target: Gal(b1-4)GlcNAc(b1-2)Man(a1-3)[Man(a1-6)]Man(b1-4)GlcNAc(b1-4)GlcNAc
# Procedure, shortened: as §1
# [45] = target: Gal(b1-4)GlcNAc(b1-2)Man(a1-6)Man(b1-4)GlcNAc(b1-4)GlcNAc
# Procedure, shortened: as §1
binder,measurement,setting,value
"Dectin2 (Homo sapiens), Q6EIG7 (protein) MMQEQQPQSTEKRGWLSLRLWSVAGISIALLSACFIVSCVVTYHFTYGETGKRLSELHSYHSSLTCFSEGTKVPAWGCCPASWKSFGSSCYFISSEEKVWSKSEQNCVEMGAHLVVFNTEAEQNFIVQQLNESFSYFLGLSDPQGNNNWQWIDKTPYEKNVRFWHLGEPNHSAEQCASIVFWKPTGWGWNDVICETRRNSICEMNKIYL",glycan array binding signal (z-score),[1],0.019
same,glycan array binding signal (z-score),[2],-0.07
same,glycan array binding signal (z-score),[3],0.087
same,glycan array binding signal (z-score),[4],-0.034
same,glycan array binding signal (z-score),[5],-0.181
same,glycan array binding signal (z-score),[6],-0.176
same,glycan array binding signal (z-score),[7],-0.194
same,glycan array binding signal (z-score),[8],0.015
same,glycan array binding signal (z-score),[9],1.31
same,glycan array binding signal (z-score),[10],0.899
same,glycan array binding signal (z-score),[11],-0.178
same,glycan array binding signal (z-score),[12],-0.142
same,glycan array binding signal (z-score),[13],-0.191
same,glycan array binding signal (z-score),[14],-0.196
same,glycan array binding signal (z-score),[15],-0.177
same,glycan array binding signal (z-score),[16],-0.187
same,glycan array binding signal (z-score),[17],-0.128
same,glycan array binding signal (z-score),[18],-0.172
same,glycan array binding signal (z-score),[19],-0.15
same,glycan array binding signal (z-score),[20],0.096
same,glycan array binding signal (z-score),[21],0.583
same,glycan array binding signal (z-score),[22],-0.137
same,glycan array binding signal (z-score),[23],-0.163
same,glycan array binding signal (z-score),[24],-0.115
same,glycan array binding signal (z-score),[25],-0.175
same,glycan array binding signal (z-score),[26],0.069
same,glycan array binding signal (z-score),[27],-0.194
same,glycan array binding signal (z-score),[28],-0.187
same,glycan array binding signal (z-score),[29],-0.187
same,glycan array binding signal (z-score),[30],-0.162
same,glycan array binding signal (z-score),[31],-0.075
same,glycan array binding signal (z-score),[32],-0.131
same,glycan array binding signal (z-score),[33],-0.188
same,glycan array binding signal (z-score),[34],-0.133
same,glycan array binding signal (z-score),[35],-0.203
same,glycan array binding signal (z-score),[36],-0.087
same,glycan array binding signal (z-score),[37],-0.158
same,glycan array binding signal (z-score),[38],-0.213
same,glycan array binding signal (z-score),[39],-0.09
same,glycan array binding signal (z-score),[40],-0.192
same,glycan array binding signal (z-score),[41],-0.188
same,glycan array binding signal (z-score),[42],-0.202
same,glycan array binding signal (z-score),[43],-0.139
same,glycan array binding signal (z-score),[44],0.351
same,glycan array binding signal (z-score),[45],-0.163
